Source: the supplement of paper PMC4967469
A lower IC50 marks a more sensitive line; a fit beyond the top or the lowest dose is shown as a bound at that dose. The AUC spans the tested range (256-fold, ending at the top dose) of the same fit: 1 means no effect, lower means more sensitive. For some of these results: Any top dose called inferred was calculated from the reported fits. For some of these results: An entry number marks a drug with two screens in the source, which often give different values.

Tests used:
Test in all cases: Viability of human cancer cell lines after 72 h of drug (GDSC screen)
[1] = compound: C/C(O)=C(\C#N)C(=O)Nc1cc(Br)ccc1Br [LFM-A13]; conditions: top dose 16 µM; top dose inferred
Description: (§1)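 Human cancer cell lines in 384-well plates, medium with 10% serum, drug for 72 h over a 256-fold dose range (nine 2-fold or five 4-fold steps up to the top dose). Adherent lines were fixed and stained with the nucleic acid dye Syto60, suspension lines read with resazurin; signal relative to control wells, capped at 0 and 100%. One two-parameter sigmoid per drug and line, fitted in a mixed model over all curves with the slope shared within a line.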

[2] = compound: CC(O)(CS(=O)(=O)c1ccc(F)cc1)C(=O)Nc1ccc(C#N)c(C(F)(F)F)c1 [Bicalutamide]; conditions: top dose inferred
Description: as §1

[3] = compound: Cc1ccc(Nc2cc(-c3cccc(N4C(=O)c5ccccc5C4=O)c3)ncn2)cc1NS(C)(=O)=O [KIN001-270]; conditions: top dose 20 µM; top dose inferred
Description: as §1

[4] = compound: NC(=O)c1cccc(-c2cc(Nc3ccc(OC(F)(F)F)cc3)ncn2)c1 [GNF-2]; conditions: top dose 1.28 µM; top dose inferred
Description: as §1

[5] = compound: Nc1ccn([C@@H]2O[C@H](CO)[C@@H](O)C2(F)F)c(=O)n1 [Gemcitabine]; conditions: top dose 1.024 µM
Description: as §1

[6] = compound: O=S(=O)(c1ccccc1)N(CC(F)(F)F)c1ccc(C(O)(C(F)(F)F)C(F)(F)F)cc1 [T0901317]; conditions: top dose 10.24 µM; top dose inferred
Description: as §1

[7] = compound: S=C(NCc1ccc2c(c1)OCO2)N1CCN(c2ncnc3c2oc2ccccc23)CC1 [MP470]; conditions: top dose 20 µM; top dose inferred
Description: as §1

[8] = compound: CCNC(=O)c1noc(-c2cc(C(C)C)c(O)cc2O)c1-c1ccc(CN2CCOCC2)cc1 [AUY922]; conditions: top dose 0.256 µM; top dose inferred
Description: as §1

[9] = compound: CC(C)c1ccccc1Cc1cc(C(=O)Nc2ccc(S(=O)(=O)c3ccccc3C(C)(C)C)cc2)c(O)c(O)c1O [TW-37]; conditions: top dose 5 µM
Description: as §1

[10] = top dose 1.024 µM, screen: GDSC drug entry 150
[11] = top dose 10 µM, screen: GDSC drug entry 1502

Cell Line	AUC [1]	IC50 [1]	AUC [2, 10]	IC50 [2, 10]	AUC [2, 11]	IC50 [2, 11]	AUC [3]	IC50 [3]	AUC [4]	IC50 [4]	AUC [5]	IC50 [5]	AUC [6]	IC50 [6]	AUC [7]	IC50 [7]	AUC [8]	IC50 [8]	AUC [9]	IC50 [9]
A704 (kidney, adherent)	0.894	> 16 µM	0.984	> 1.02 µM	0.98	> 10 µM	0.914	> 20 µM	0.975	> 1.28 µM	0.381	0.0304 µM	0.982	> 10.2 µM	0.902	> 20 µM				
BC-3 (B-cell lymphoma, suspension)	0.989	> 16 µM	0.988	> 1.02 µM			0.96	> 20 µM	0.989	> 1.28 µM	0.712	0.235 µM	0.951	> 10.2 µM	0.855	13.4 µM	0.537	0.02 µM		
CAL-148 (breast, suspension)	0.983	> 16 µM	0.989	> 1.02 µM			0.972	> 20 µM	0.989	> 1.28 µM	0.399	0.0347 µM	0.978	> 10.2 µM	0.875	17 µM	0.647	0.0394 µM		
CP67-MEL (melanoma, adherent)									0.927	> 1.28 µM										
ES3 (Ewing sarcoma, adherent)	0.969	> 16 µM	0.985	> 1.02 µM	0.974	> 10 µM	0.932	> 20 µM	0.946	> 1.28 µM	0.461	0.05 µM	0.98	> 10.2 µM	0.753	7 µM	0.642	0.0405 µM		
EW-12 (Ewing sarcoma, suspension)									0.975	> 1.28 µM										
HEL (acute myeloid leukaemia, semi-adherent)	0.965	> 16 µM	0.991	> 1.02 µM	0.99	> 10 µM	0.981	> 20 µM	0.992	> 1.28 µM			0.955	> 10.2 µM	0.89	16.2 µM	0.498	0.0158 µM	0.544	0.403 µM
KP-N-RT-BM-1 (neuroblastoma, semi-adherent)									0.958	> 1.28 µM										
KP-N-YS (neuroblastoma, adherent)	0.949	> 16 µM	0.981	> 1.02 µM			0.911	> 20 µM	0.981	> 1.28 µM			0.976	> 10.2 µM	0.839	16.6 µM	0.706	0.0671 µM		
MV-4-11 (leukaemia, suspension)	0.974	> 16 µM	0.99	> 1.02 µM	0.975	> 10 µM	0.98	> 20 µM	0.99	> 1.28 µM			0.837	5.2 µM	0.764	6.07 µM	0.298	0.00488 µM	0.339	0.122 µM
NCI-H128 (small cell lung carcinoma, suspension)									0.969	> 1.28 µM										
